{"source": "the supplement of paper PMC10338343", "note": "± gives the standard deviation. Over roughly 3,000 sequences, “pre-steady-state target cleavage rate” has its median near 0.0079; the highest 2% begin near 0.2. This is a selection; strong and weak results do not stand in their true shares."}
{"system": "MILI (PIWIL2) piRISC loaded with piRNA #2 (26 nt)", "assay": "pre-steady-state target cleavage rate (min^-1); MIWI and MILI are mouse PIWI proteins and EfPiwi is from a freshwater sponge; tags in brackets are library labels; higher = faster piRNA-guided slicing of the target", "settings": "guide: piRNA #2 5'p-UUAGGUAACCCAGUAGAUCCAGAGGA; auxiliary factor: 500 nM mouse GTSF1", "experimental": "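Cleave-'n-Seq: a library of target RNAs (target site embedded in constant flanks, ACAGCATTCCGCGTTAGTGATATCCG... 5' flank; DNA-blocked outside the site) at 0.1 nM was incubated with 1 nM active mouse MILI or MIWI piRISC (synthetic 5'-monophosphorylated piRNA guide) with or without 500 nM mouse GTSF1 at 33 °C for 1 min to 16 h. Uncleaved targets were sequenced and normalised to non-target controls, and the pooled three trials were fitted to a burst-and-steady-state model to give the pre-steady-state cleavage rate (min^-1; k3 is constrained to at most 1e-4). Sequence is the target site only; target names encode pairing extent (gX:gY) and contiguous / 1-mismatch / 2-mismatch / bulge geometry. Fits with R² ≤ 0 are excluded.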"}
{"sequence": "CUUAAUCUCUGGAUCUACUGGGUUACCUAA", "pre-steady-state target cleavage rate": "0.0853 ± 0.015"}
{"sequence": "CUUAUCCUCUGGAUCUACUGGGGUACCUAA", "pre-steady-state target cleavage rate": "0.0107 ± 0.0053"}
{"sequence": "CUUAAGCUCUGGUACUACUGGGUUACCUAA", "pre-steady-state target cleavage rate": "0.166 ± 0.051"}
{"sequence": "CUUAAGGAGUGGAUCUACUGGGUUACCUAU [g2:g21:cont:t1U]", "pre-steady-state target cleavage rate": "0.0492 ± 0.015"}
{"sequence": "CUUAACCACUGGAUCUACUGGGUUACGUAA", "pre-steady-state target cleavage rate": "0.0189 ± 0.0069"}
{"sequence": "CUUAACCUCUGGAUCUACUGGGUUAGCUUA", "pre-steady-state target cleavage rate": "0.106 ± 0.027"}
{"sequence": "CUUAACCUCUGGAUCUACUGGGUUUCGUAA", "pre-steady-state target cleavage rate": "0.128 ± 0.044"}
{"sequence": "CUUAAGGAGUUGAUCUACUGGGUUACCUAA", "pre-steady-state target cleavage rate": "0.00432 ± 0.0026"}
{"sequence": "CUUAAGCUCUGGAUCUACAGGGUAACCUAA", "pre-steady-state target cleavage rate": "0.0226 ± 0.0075"}
{"sequence": "CUUAUCCACUGGAUCUACUGGGUAACCUAA", "pre-steady-state target cleavage rate": "0.0345 ± 0.0086"}
{"sequence": "CUUAAGGUCUGGAUCUACUGGGUUCACCUAA", "pre-steady-state target cleavage rate": "0.0401 ± 0.013"}
{"sequence": "CUUAAGGUCUGGUCUACUGGGUUACCUAA", "pre-steady-state target cleavage rate": "0.00576 ± 0.0047"}
{"sequence": "CUUAAGCUCUGGAACAACUGGGUUACCUAA", "pre-steady-state target cleavage rate": "0.0254 ± 0.0096"}
{"sequence": "CUUAAGGUGUGGAUCUACUGGGUUACCAAA", "pre-steady-state target cleavage rate": "0.0115 ± 0.0056"}
{"sequence": "CUUAUCCUCUGGAUCUACACGGUUACCUAA", "pre-steady-state target cleavage rate": "0.0118 ± 0.0023"}
{"sequence": "CUUAAGCUCUGGAUGUACUGGGUUACGUAA", "pre-steady-state target cleavage rate": "0.0334 ± 0.011"}
{"sequence": "CUUAACCUCUGGAUCCACUGGGUUACCUAA", "pre-steady-state target cleavage rate": "0.0558 ± 0.013"}
{"sequence": "CUUAAGCUCUGCAUCUACUGGGUUAGCUAA", "pre-steady-state target cleavage rate": "0.0651 ± 0.016"}
{"sequence": "CUUAAGCUCAGGAUCUACUGGGUUACGUAA", "pre-steady-state target cleavage rate": "0.00969 ± 0.0055"}
{"sequence": "CUUAUCCUCCGGAUCUACUGGGUUACCUAA", "pre-steady-state target cleavage rate": "0.0892 ± 0.028"}
{"sequence": "CUUAUCCUCUGGAUCUACAGCGUUACCUAA", "pre-steady-state target cleavage rate": "0.0168 ± 0.0039"}
{"sequence": "CUUAUCCUCUGGAUCAACUGGGUUACCAAA", "pre-steady-state target cleavage rate": "0.0632 ± 0.013"}
{"sequence": "CUUAAGGACUGGAUGUUCUGGGUUACCUAA", "pre-steady-state target cleavage rate": "0.0125 ± 0.011"}
{"sequence": "CUUAUCCUCUGGAUCUACUGUGUUACCUAA", "pre-steady-state target cleavage rate": "0.0367 ± 0.0067"}
{"sequence": "CUUAAGGUCUGGAUCUAGUGGGAUACCUAA", "pre-steady-state target cleavage rate": "0.00834 ± 0.0047"}
{"sequence": "CUUAUCCUCUGGAACUACUGGGAUACCUAA", "pre-steady-state target cleavage rate": "0.0433 ± 0.021"}
{"sequence": "CUUAAGGACUGGAUCUGCUGGGUUACCUAA", "pre-steady-state target cleavage rate": "0.0168 ± 0.012"}
{"sequence": "CUUAAGGUCUGCAUCUAGUGGGUUACCUAA", "pre-steady-state target cleavage rate": "0.0418 ± 0.012"}
{"sequence": "CUUAUCCUCUGGAUCUACAGGGAUACCUAA", "pre-steady-state target cleavage rate": "0.0435 ± 0.011"}
{"sequence": "CUUAACCUCUGGAUGUACAGGGUUACCUAA", "pre-steady-state target cleavage rate": "0.102 ± 0.013"}
{"sequence": "CUUAUCCUCUGGAUCUACUGGGUUGCCUAA", "pre-steady-state target cleavage rate": "0.0855 ± 0.017"}
{"sequence": "CUUAAGGACUGGAUCUAGUGGGUUACCAAA", "pre-steady-state target cleavage rate": "0.0168 ± 0.0085"}
{"sequence": "CUUAAGCUCUGGAUCUACUGGGUUAGGUAA", "pre-steady-state target cleavage rate": "0.028 ± 0.012"}
{"sequence": "CUUAAGCUCUGGAUGUACAGGGUUACCUAA", "pre-steady-state target cleavage rate": "0.081 ± 0.011"}
{"sequence": "CUUAAGCUCUGGAUCAACUGGGUUACGUAA", "pre-steady-state target cleavage rate": "0.021 ± 0.0077"}
{"sequence": "CUUAUCCACUCGAUCUACUGGGUUACCUAA", "pre-steady-state target cleavage rate": "0.15 ± 0.02"}
{"sequence": "CUUAACCUCUGGAUGUACUGGGUAACCUAA", "pre-steady-state target cleavage rate": "0.0449 ± 0.015"}
{"sequence": "CUUAAGCUCUGGAUCUAGAGGGUUACCUAA", "pre-steady-state target cleavage rate": "0.0158 ± 0.0045"}
{"sequence": "CUUAAGGAGUGGAUCUACAGGGUAACCUAA", "pre-steady-state target cleavage rate": "0.0275 ± 0.0089"}
{"sequence": "CUUAUCCUCAGGAUCUAGUGGGUUACCUAA", "pre-steady-state target cleavage rate": "0.0524 ± 0.012"}
{"sequence": "CUUAUCCUGUGGUUCUACUGGGUUACCUAA", "pre-steady-state target cleavage rate": "0.0695 ± 0.015"}
{"sequence": "CUUAUCUUCUGGAUCUACUGGGUUACCUAA", "pre-steady-state target cleavage rate": "0.154 ± 0.019"}
{"sequence": "CUUAUCCUCUCGAUCAACUGGGUUACCUAA", "pre-steady-state target cleavage rate": "0.105 ± 0.023"}
{"sequence": "CUUAUCCUCACGAUCUACUGGGUUACCUAA", "pre-steady-state target cleavage rate": "0.139 ± 0.031"}
{"sequence": "CUUAAGGUCUGGAUCUAAUGGGUUACCUAA", "pre-steady-state target cleavage rate": "0.0668 ± 0.011"}
{"sequence": "CUUAAGGUCUGGAUCUACCGGGUUACCUAA", "pre-steady-state target cleavage rate": "0.0239 ± 0.006"}
{"sequence": "CUUAAGGAGUGGAUCUACACGGUUACCUAA", "pre-steady-state target cleavage rate": "0.00609 ± 0.0034"}
{"sequence": "CUUAAGCUCUCCAUCUACUGGGUUACCUAA", "pre-steady-state target cleavage rate": "0.0739 ± 0.014"}
{"sequence": "CUUAUCCUCAGGUUCUACUGGGUUACCUAA", "pre-steady-state target cleavage rate": "0.134 ± 0.029"}
{"sequence": "CUUAAGGAGACCUAGUACUGGUUACCUAA", "pre-steady-state target cleavage rate": "< 0.0001"}
{"sequence": "CUUAAGCUCUGGAUGAUCUGGGUUACCUAA", "pre-steady-state target cleavage rate": "0.0295 ± 0.013"}
{"sequence": "CUUAUCCUCUGGAUCUUCUGCGUUACCUAA", "pre-steady-state target cleavage rate": "0.0103 ± 0.0033"}
{"sequence": "CUUAACCUCUGGAUCUACUGGGGUACCUAA", "pre-steady-state target cleavage rate": "0.00532 ± 0.0045"}
{"sequence": "CUUAUGCUCUGCAUCUACUGGGUUACCUAA", "pre-steady-state target cleavage rate": "0.0742 ± 0.014"}
{"sequence": "CUUAAGCUCUGGAUCUACUGGGCUACCUAA", "pre-steady-state target cleavage rate": "0.0256 ± 0.01"}
{"sequence": "CUUAACCUCUGGAUCUACUGGGUUACUAA", "pre-steady-state target cleavage rate": "0.185 ± 0.044"}
{"sequence": "CUUAAGGAGAGGAUCUACUGGGUUACCUAG [g2:g20:cont:t1G]", "pre-steady-state target cleavage rate": "0.00782 ± 0.0038"}
{"sequence": "CUUAAGGUCUGGAUCUACUGAGUUACCUAA", "pre-steady-state target cleavage rate": "0.0245 ± 0.0086"}
{"sequence": "CUUAAGGAGUGGAUCUACUGGGUAACCUAA", "pre-steady-state target cleavage rate": "0.0142 ± 0.0077"}
{"sequence": "CUUAACCAGAGGAUCUACUGGGUUACCUAA", "pre-steady-state target cleavage rate": "0.0108 ± 0.0053"}
{"sequence": "CUUAACGUCUGCAUCUACUGGGUUACCUAA", "pre-steady-state target cleavage rate": "0.126 ± 0.02"}
{"sequence": "CUUAAGCUCAGGUUCUACUGGGUUACCUAA", "pre-steady-state target cleavage rate": "0.0695 ± 0.021"}
{"sequence": "CUUAUCCUCUGGAUCAACUGGGUUACGUAA", "pre-steady-state target cleavage rate": "0.0127 ± 0.0051"}
{"sequence": "CUUAUCCUCUGGUUCUACUGGGUUACCUAA", "pre-steady-state target cleavage rate": "0.469 ± 0.1"}
{"sequence": "CUUAAGGUCUGGAUCUACGGGUUACCUAA", "pre-steady-state target cleavage rate": "0.0103 ± 0.005"}
{"sequence": "CUUAAGCUCUGGAGUCUACUGGGUUACCUAA", "pre-steady-state target cleavage rate": "0.071 ± 0.018"}
{"sequence": "CUUAUCCUCUGGAUCUUCUGGGUUAGCUAA", "pre-steady-state target cleavage rate": "0.0465 ± 0.014"}
{"sequence": "CUUAUCCUACUGGAUCUACUGGGUUACCUAA", "pre-steady-state target cleavage rate": "0.0814 ± 0.019"}
{"sequence": "CUUAUCGUCUGGAACUACUGGGUUACCUAA", "pre-steady-state target cleavage rate": "0.072 ± 0.012"}
{"sequence": "CUUAAGGUCUGGAUCAACUGGGAUACCUAA", "pre-steady-state target cleavage rate": "0.011 ± 0.0062"}
{"sequence": "CUUAAGCUCUGGAUCUACUGGGUCACCUAA", "pre-steady-state target cleavage rate": "0.00519 ± 0.0039"}
{"sequence": "CUUAAGGACUGGAUCUACUGGGAUUACCUAA", "pre-steady-state target cleavage rate": "0.0116 ± 0.01"}
